According to the RNAGym collection of RNA variant scans (doi:10.7554/elife.90254):
Read counts are not given, so values of variants with three or more changes are uncertain.

B1: LINE1-mini (parent)
chain: GGCAGAGCUCAACACAGCGUGGCAAAGUGGCUGUGGCUAGACUGCC

Variants of: B1
Assay: self-cleavage, relative activity (ratio to wild type); higher = more cleavage; in vitro, sequencing; the parent is a self-cleaving ribozyme

| Variant | self-cleavage |
| --- | --- |
| C15U G17U G29A C42U | 0.05 |
| C8A U28A C42G U43A | 0.07 |
| U9C C13G A16U G40A | 0.01 |
| G1U U9C C18A U34G G36A | 0.01 |
| G2C C10A C37A A39U | 0.01 |
| A6G C23A A39U G40A G44U C45G | 0.08 |
| U9G G19U C46G | 0.06 |
| C10G G27C G29A | 0.02 |
| G1U A25C G33A | 0.02 |
| G19U U20G G22C | 1.38 |
| G17U A24C U43A | 0 |
| C15G G19A G36U | 0.04 |
| G21A G33U G40C | 0.05 |
| G21A G22C A26G G40U C42A | 0.04 |
| G1C G2C C37G | 0.02 |
| C8G G21A U32C U38A | 0.15 |
| G2U C3A C8G A26U | 0.72 |
| G5A A16C G40U | 0.31 |
| C15A G21C C23G U28C A39U | 0.03 |
| G30A U32G G35U | 0.03 |
| C3A A26U G44C | 0.14 |
| C3A C13U G21A U28A G30U G44A C46U | 0.05 |
| G21C G30U U32G U34G | 0.03 |
| A14U C37G C42U | 0.01 |

| Variant | self-cleavage |
| --- | --- |
| A4G C18A A26G G36C U38C G40A | 0.03 |
| A4G G22C G29U | 0.21 |
| G17U U20A G27U C46A | 0.22 |
| C3A G5C A6G G30U G40U U43G | 0.37 |
| U9A A16U C31U | 0.04 |
| A14C C15G G44U | 0.05 |
| C3G G5U G17U U20G C23G | 0.05 |
| A11G G35C C37G | 0.06 |
| A6U U28A G30A C45U | 0.19 |
| C18G C23U C42U | 0.05 |
| G1C A39U C46U | 0.06 |
| G7A G19U A25G C46U | 0.18 |
| G19C U34G G35A G44U | 0.05 |
| C8U U20G U28A | 0.13 |
| G5U A16U G17U G36U U43A | 0.01 |
| C8U U32C A41C C46G | 0.12 |
| A24C G30C U32C | 0.11 |
| C15U C18A U43G G44U | 0.09 |
| C8G A25C G27C | 0.03 |
| G1U G2A A4C G29C G33A A41G | 0.07 |
| C8U C18G A25G U32A | 0.02 |
| C10A A24C A39U | 0.14 |
| C8A A24G U28C | 0.09 |
| G5U C13U C18U U20A C37A | 0.04 |

| Variant | self-cleavage |
| --- | --- |
| A26U G27A C45A | 0.35 |
| A25G A26U G35U | 0.09 |
| G5A C10A U32A C42A U43G C46U | 0.03 |
| G7C A14U C46A | 0.12 |
| G1A G7A U9A C10A G33U | 0.09 |
| A4C A11C A24G G27U G29C C42U | 0 |
| G1C G27U U34G G40U | 0.01 |
| A11U G17C G30U | 0.01 |
| C8U U9C A26C G35A | 0.04 |
| C3U C10U C46A | 0.05 |
| G7A G17U U43C | 0.3 |
| A16C G29U G40U | 0.02 |
| C23A G36U U43A | 0.03 |
| G2C C15A C23U G27C C42U G44C | 0.11 |
| A6C G7A G40U | 0.36 |
| C15U A39U C46U | 0.26 |
| C8A A14U A39G C42G C46U | 0.04 |
| G7C C15G C46A | 0.04 |
| G1C G2A U32A G35U G44C | 0.24 |
| G5A C18U C46G | 0.02 |
| G19A U20A G30U | 1.21 |
| G5U C10A U28G C46U | 0.01 |
| G1C C10A A12C A25C G29U U34A A41C | 0.02 |
| G5U C31U C45G | 0.06 |

| Variant | self-cleavage |
| --- | --- |
| G19C U20A G36A G40C | 0.03 |
| G7U G29C U32A C46U | 0.03 |
| A14C A25C G30U | 0.09 |
| A14U C23U G33C U43C | 0 |
| A6G C8A U9A G35A | 0.36 |
| G1C C3G A6C C8G C15U G17A G21U U32G G33U | 0.09 |
| A6C G19U C42A | 0.06 |
| G2C C10A U20C A39U | 0.04 |
| G7C U20A A25U U28G | 0.03 |
| C3U A12U C15G C18G G21U G29A G33C C45U | 0.02 |
| A11C C15A U32C U34A | 0.03 |
| G21A G22U G33A | 0.38 |
| C3A A16U G17A | 0.1 |
| G7C C10U A25U | 0.02 |
| A26G G30U U43A C45G | 0.07 |
| G5U C13A C31U G40A | 0.11 |
| A6U G22U G30U | 1.46 |
| C10G G30A C45A | 0.01 |
| C15A A24C G30C | 0.05 |
| C10A G17U G21U A25C C37A A41G | 0.01 |
| G17U G22C G44C | 0.06 |
| A4G C13A C18G C45U | 0.04 |
| C23G G29C C42A | 0 |
| G7C C13G G19C A39G | 0.06 |

| Variant | self-cleavage |
| --- | --- |
| A4U C8G G19C G33U C37A | 0.07 |
| C8A U9A C13A | 0.51 |
| G19C A24G A41G | 0.15 |
| G1A G2A G5C G7U G40C | 0.94 |
| A24U G27A C42G C45U | 0.1 |
| C8A A25G G35C U38A A39U | 0.29 |
| U32G C37A C45A | 0.02 |
| G2A C8A C10G A11U A12U U20G G21C G40U | 0.03 |
| A6U G30U C31U | 0.08 |
| A11C C13U C23U C37U C45U | 0 |
| A12C C13A U38C C42A | 0.03 |
| C3A G22C A25U | 0.35 |
| C10A G29A G30U C45U | 0.03 |
| G30C G33U U43G G44U | 0.21 |
| A6U C10A C15G | 0 |
| G5U U32G C46A | 0.04 |
| U9A A12G C13A C42U C46A | 0.04 |
| C3U G19U A24C | 0.44 |
| G7U A12C U20A G21A A25U U28G | 0.02 |
| C3G A14C C45G | 0.07 |
| C3A U9G A16C A26C G27U | 0.14 |
| C13A G21C A39G G40U | 0.02 |
| U9A G22U G35A | 0.19 |
| A26U G35U C46A | 0.11 |

| Variant | self-cleavage |
| --- | --- |
| G21U G30U C31A U32A | 0.13 |
| A12U C18U U28G G40C | 0 |
| G2U A6G G30A | 0.04 |
| G1A C8A U20C G21C | 0.18 |
| C3A A14C G21U G44C | 0.06 |
| G19A C42A U43A G44C | 0.04 |
| G1A G7A A11G A25G A26U U38G | 0.03 |
| G30C G33A G35U A41U U43A | 0.04 |
| A12C G19A A41C | 0.01 |
| A4G C23G G36U G40U | 0.14 |
| C3U G7C C37A | 0.04 |
| G2U G7C A16G G19A U43A | 0.02 |
| A24U U28A U32A G36U | 0.06 |
| G36C C37G C45U | 0.05 |
| U9C G22C C31U A41U | 0.02 |
| G2C U20A A24U A26U G27U G36A U38A C46A | 0.06 |
| G21C G30U C31G A41G U43C | 0.01 |
| U9G C15A A25G G40A | 0.02 |
| C18U G21A G30U | 0.55 |
| G5U G22C C46G | 0.01 |
| G1U G27A A41U | 0.87 |
| G2U A24U C45A | 0.29 |
| G2C C8U G22U A24C C37G | 0.06 |
| G2A U9G C15G U32A C46U | 0.04 |

| Variant | self-cleavage |
| --- | --- |
| U9A C23U G36A C45U | 0.82 |
| C3U G22U A24U G36A | 0.43 |
| G2A U9A A16U U34G | 0.06 |
| G22C U43A C46G | 0.02 |
| C3U U9C U38G | 0.04 |
| G2A C8U C18U C31A | 0.14 |
| G5U A14C C45G | 0.03 |
| G5U A14G C15G C23U | 0.11 |
| G2U C3G C8A C13U A39U C45G | 0.25 |
| C18G G22A A26U | 0.45 |
| A11C A16C G30A A41G G44U | 0.02 |
| G19U C23A U32G U34C | 0.03 |
| G1C U9G C10U A39C G40U A41U C45G | 0.01 |
| G1C A6U G17A C23U | 0.04 |
| G1U C3A A12C A16C C18A G35A C37A | 0.01 |
| C3A C15A A41U | 0.14 |
| G21A G29A C37A C45A | 0.1 |
| C8G A14C G35C | 0.02 |
| C15U G17A U28G C46U | 0.04 |
| G2U A14U G21C C37G | 0.03 |
| G19U A25C C46A | 0.75 |
| G7C U20C A25G U43C | 0.03 |
| A26C G29A U32A | 0.09 |
